Measured values reported in PubChem BioAssay AID1508624 (National Center for Advancing Translational Sciences (NCATS), 2021).
In all, about 48,000 compounds went through this assay and about 120 (0.25%) were called active. Not shown: some 4% with an inconclusive outcome. The call rests on the fitted dose curve; in most records, active means well fitted activation curve with a large enough effect; inconclusive means small, poorly fitted or top-dose-only effect, or another doubt; inactive means no such curve, though single readings can be large or run the other way. The list shows a part of the results.

Assay: Primary qHTS for Identification of Small Molecule Activators of Huntingtin-Antisense Promoter Activity; further: nearly all actives have a fitted effect of over 55% in size
Settings: HEK293 HTT-AS promoter firefly luciferase reporter, 24 h; series mostly up to 57.5 µM; activity change, positive = activation: at the top concentration
In short: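 Quantitative HTS used concentration series of up to 57.5 uM final on HEK293 luciferase reporter cells, 24 h at 37 degrees C. Readout was Dual-Glo firefly luminescence.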

SMILES | activity change, positive = activation
CCOC(=O)C1CCN(C(=O)Cn2nc(C)n3c(cc4cc(C)ccc43)c2=O)CC1 | inactive: -13.6%
COc1ccc(CCn2c(=O)c3cccnc3n(CC(=O)Nc3cccc(C)c3)c2=O)cc1OC | inactive: 1.25%
Cc1cc2nc(-c3ccc(Br)cc3)cc(C(F)(F)F)n2n1 | inactive: -0.106%
CCc1ccc(-c2cn3c(n2)sc2cc(C(=O)NCC(C)c4ccccc4)ccc23)cc1 (configuration not stated) | inactive: 9.26%
Cc1nc2c(C(=O)NCCc3ccc(Cl)cc3)c[nH]n2c(=O)c1Cc1ccccc1F | inactive: -17.4%
CCc1ccc(N2CCn3c2nc2c3c(=O)n(Cc3c(F)cccc3Cl)c(=O)n2C)cc1 | inactive: -7.42%
Cc1ccc2nc(NS(=O)(=O)c3ccc(Cl)cc3)c(Nc3ccc(C(=O)O)cc3)nc2c1 | inactive: -0.0763%
Cc1nnc2c(N3CCN(c4ccccc4)CC3)nc3ccc(C(=O)c4ccccc4)cc3n12 | inactive: -1.16%
N#C/C(=C\c1ccccc1)C(=O)Nc1sc2c(c1C(N)=O)CCC2 | inactive: -13.7%
Cn1cnc(S(=O)(=O)N2CCC(C(=O)N3CCN(c4ccc(Cl)cc4)CC3)CC2)c1 | inactive: -14.3%
CCc1ccccc1NC(=O)C1COc2ccccc2C1 (configuration not stated) | inactive: 16.2%
N[C@H](C(=O)O)[C@@H](O)c1ccc(O)c(O)c1 | inactive: -1.79%
COc1cccc(C2C(C(=O)Nc3ccccc3)=C(C)Nc3nnnn32)c1OC (configuration not stated) | inactive: -9.43%
CCc1ccc(Sc2cc(C(=O)NCCCOC(C)C)c3ccccc3n2)cc1 | inactive: -34.2%
Cc1cc(C)cc(OCC(=O)Nc2ccc(Cl)c(-c3nc4ncccc4o3)c2)c1 | inactive: -30.3%
COc1cc2c(Oc3ccc(NC(=O)C4(C(=O)Nc5ccc(F)cc5)CC4)cc3F)ccnc2cc1OCCCN1CCOCC1 | inactive: -40.9%
CC(=O)Nc1ccc(-n2c(CCC(=O)O)ccc2-c2ccc(C)cc2)cc1 | inactive: -0.416%
CCOC(=O)c1oc2ccc(S(=O)(=O)n3nc(-c4cc(OC)cc(OC)c4)cc3N)cc2c1C | inactive: -12.4%
Cc1ccc(NC(=O)CSc2nc3c(oc4ccccc43)c(=O)n2Cc2ccco2)cc1 | inactive: -11%
CCCn1c(=O)c2sccc2n2c(CCCC(=O)N3CCN(c4cccc(C)c4C)CC3)nnc12 | inactive: -19.2%
CN(C(=O)CSc1nc2ccccc2n1CC(=O)N(C)c1ccc(F)cc1)c1ccccc1 | inactive: -4.84%
CCc1ccccc1NC(=O)Cn1nnc(C(=O)NCc2cccs2)c1N | inactive: -18.1%

SMILES | activity change, positive = activation
Cc1ccc(CNC(=O)CN2C(=O)C3(SCC(=O)N3c3cc(C)cc(C)c3)c3ccccc32)cc1 (configuration not stated) | inactive: -24.1%
O=C(CSc1nccn1Cc1ccc(F)cc1)Nc1ccc2c(c1)OCO2 | inactive: -6.12%
COc1ccc(CNCCSc2nnnn2-c2ccccc2)c(OC)c1 | inactive: -12.3%
CCN(c1ccccc1)S(=O)(=O)c1ccc(F)c(C(=O)Nc2ccc(C)cc2)c1 | inactive: -29%
Cc1nc(-c2cccc(F)c2)sc1CCNC(=O)c1ccc(F)c(F)c1 | inactive: -25.3%
CCOc1ccc(Nc2oc(-c3ccc(COc4ccccc4C)o3)nc2C#N)cc1 | inactive: -18.5%
O=C(C1CC1)N1CCc2cc(Br)cc(S(=O)(=O)N3CCN(c4ccccc4)CC3)c21 | inactive: -3.31%
CCc1ccc(NS(=O)(=O)c2ccc(C(=O)N(C)C)s2)cc1 | inactive: -28.1%
OCc1cccnc1 | inactive: 1.46%
Cn1c(=O)c2sccc2n2c(CCC(=O)N3CCN(c4cccc(Cl)c4)CC3)nnc12 | inactive: -11.8%
Cc1c(CNCCc2ccc(S(N)(=O)=O)cc2)c(C(=O)O)c(C)n1Cc1ccc(Cl)cc1 | inactive: 3.71%
CCCCC(=O)Nc1nnc(S(=O)(=O)N(CC)c2cc(C)cc(C)c2)s1 | inactive: -14.7%
CCCCOC(=O)c1ccc(Nc2nc3ccccc3c3nnc(C)n23)cc1 | inactive: -6.21%
CCOc1ccc(/C=C(\C#N)C(=O)Nc2sc3c(c2C(=O)OC)C(C(=O)OC)CC3)cc1OC (configuration not stated) | inactive: -20%
CCOC(=O)c1cc(OC(=O)c2ccc(Cl)cc2)n(-c2ccccc2)n1 | inactive: -8.38%
Cc1ccc(N(CC(=O)N2CCN(c3ccc(Cl)cc3)CC2)S(=O)(=O)c2c(C)noc2C)cc1 | inactive: -33.8%
COc1ccc(C2C(=O)N(C3CCCCC3)CC(=O)N2Cc2ccccc2Cl)cc1OC (configuration not stated) | inactive: -11%
COc1ccc(-c2nn(CC(=O)Nc3ccccc3F)c3c2cnc2ccc(F)cc23)cc1 | inactive: 28.6%
CCc1ccc(-n2nc(C)c3c(C(=O)NCCc4ccc(OC)c(OC)c4)cc(C)nc32)cc1 | inactive: -31%
Cc1ccc(C)c(N2CCN(CCCNC(=O)Cn3ncc4c([nH]c5ccccc54)c3=O)CC2)c1 | inactive: -12.5%
Cc1ccc(-c2nc(S(=O)(=O)c3ccc(C)cc3)c(N3CCN(c4ccccc4)CC3)o2)cc1 | inactive: -9.19%
CCN(CC)CCNC(=O)c1cc(Cl)c(N)cc1OC | inactive: -9.49%

SMILES | activity change, positive = activation
COc1ccc(CNC(=O)Cn2ncn3nc(-c4cccs4)cc3c2=O)cc1 | inactive: 11.6%
COc1ccc(N2CCN(S(=O)(=O)CCNC(=O)c3ccc(C(F)(F)F)cc3)CC2)cc1 | inactive: -1.83%
CCC1CCCCN1C(=O)c1nn(-c2ccc(C)cc2)c(=O)c2c1c1ccccc1n2C (configuration not stated) | inactive: 14.7%
COc1ccc(Cn2ccnc2SCC(=O)NCc2ccccc2)cc1 | inactive: -8.46%
CCOc1ccc(CCNC(=O)c2cnc3sc(N4CCOCC4)nn3c2=O)cc1 | inactive: -6.54%
COc1ccccc1-c1ccnc2[nH]n(-c3ccccc3)c(=O)c12 | inactive: -5.3%
CCc1cccc(C)c1NC(=O)Cn1c(=O)cc(C(F)(F)F)c2c(C)nn(C)c21 | inactive: -5.96%
Cc1cccc(N2CCN(c3nc4ccccc4c(=O)n3-c3ccc(Cl)cc3)CC2)c1C | inactive: -14.8%
CCOc1ccc(C(=O)Nc2ccc(S(=O)(=O)N3CCCCC3c3cccnc3)cc2)cc1 (configuration not stated) | inactive: -46.3%
Cc1ccc(C)c(S(=O)(=O)NCC(c2ccco2)S(=O)(=O)c2ccc(F)cc2)c1 (configuration not stated) | inactive: -18.7%
Cc1ccc(N2CCN(C(=O)c3ccc4c(Cl)c5c(nc4c3)CCCC5)CC2)c(C)c1 | inactive: -8.67%
Cc1noc(C)c1S(=O)(=O)N(CC(=O)NCc1ccccc1Cl)c1ccc(C(C)C)cc1 | inactive: -39.9%
O=C(Nc1ccc(F)cc1F)c1c2c(nc3ccccc13)C(=O)N(C1CCCCC1)C2 | inactive: -9.39%
O=C(NCc1cccs1)C1CCN(C(=O)N2CCOc3ccccc32)CC1 | inactive: -22.9%
O=C(Nc1c(-c2ccccc2)nc2ccccn12)c1ccc(Br)cc1 | inactive: -28.3%
O=C(CSc1nc2c([nH]c3ccccc32)c(=O)n1-c1ccccc1)c1ccccc1 | inactive: -8.69%
CCCN1C(=O)c2ccccc2CC1(C)C(=O)NC1CCCCC1 (configuration not stated) | inactive: -7.16%
Cc1ccc(Cl)cc1Nc1nn2c(=O)c3ccc(C(=O)NCc4cccs4)cc3nc2s1 | inactive: -42.4%
COc1ccccc1NC(=O)C1CCN(S(=O)(=O)c2ccc3c(c2)oc(=O)n3C)CC1 | inactive: -22.2%
Cc1ccc(NC(=O)N2CCN(c3nnc(C)c4c(C)n(-c5ccccc5)nc34)CC2)cc1Cl | inactive: 2.92%
CCOc1ccccc1CNC(=O)c1cnc2sc(N3CCCC3)nn2c1=O | inactive: -21.1%
CN(C)C/C=C(/c1ccc(Br)cc1)c1cccnc1 | inactive: -2.3%

SMILES | activity change, positive = activation
CCOCCCn1c(SCC(=O)Nc2cccc(OC)c2)nc2ccccc2c1=O | inactive: -15.1%
O=C(NCc1ccc2c(c1)OCO2)c1ccc2c(c1)N(Cc1ccc(F)cc1)C(=O)c1ccccc1S2=O (configuration not stated) | inactive: -24.4%
CCN(c1ccc(Cl)cc1)S(=O)(=O)c1nnc(NC(=O)C2CCCCC2)s1 | inactive: -29.9%
Cc1ccc2nc(N(Cc3cccnc3)C(=O)c3ccc4c(c3)OCCO4)sc2c1 | inactive: 19.4%
CCOCCc1nn2c(=O)cc(COC(=O)c3cccs3)nc2s1 | inactive: 12.9%
CC(=O)NCCC(=O)N[C@@H](CCC(N)=O)C(=O)N[C@@H](CO)C(=O)N[C@@H](CCC(N)=O)C(=O)N[C@@H](CCC(N)=O)C(=O)N[C@H](C(=O)N[C@@H](Cc1ccccc1)C(=O)N[C@]1(C)CCCCCCC=CCCC[C@@](C)(C(=O)N[C@@H](CCC(N)=O)C(=O)N[C@@H](CC(N)=O)C(N)=O)NC(=O)[C@H](CC(C)C)NC(=O)[C@H](CC(C)C)NC(=O)[C@@H](CCCNC(=N)N)NC(=O)[C@H](Cc2c[nH]c3ccccc23)NC(=O)[C@H](CC(C)C)NC(=O)[C@H](CC(N)=O)NC1=O)[C@H](C)O | inactive: -1.76%
CCCCCn1c(=O)[nH]c2cc(C(=O)NCc3ccc(OC)cc3)ccc2c1=O | inactive: -12.6%
CCCC(=O)O[C@]1(C(=O)CCl)[C@@H](C)C[C@H]2[C@@H]3CCC4=CC(=O)C=C[C@]4(C)[C@@]3(F)C(=O)C[C@@]21C | inactive: -25.1%
CCOC(=O)c1ccc(NC(=O)CCS(=O)(=O)c2ccc3c(c2)oc(=O)n3C)cc1 | inactive: 7.96% [at 11.5 µM, percent change from vehicle, -100% = no light]
CCCCN(CCCC)CCNC(=O)CN1C(=O)CSc2ccc(S(=O)(=O)N3CCCCC3)cc21 | inactive: -5.31%
Cc1cccc(CN2C(=O)CC(c3ccc(Cl)cc3)c3c(C)nn(-c4nc(C)cc(C)n4)c32)c1 (configuration not stated) | inactive: -23.7%
COc1ccccc1N(CC(=O)Nc1ccccc1F)S(C)(=O)=O | inactive: 13.7% [at 11.5 µM, percent change from vehicle, -100% = no light]
CCOc1ccc(-n2nc3cc(C)c(NC(=O)CC)cc3n2)cc1 | inactive: 26.5%
CCc1ccc(NC(=O)C(CC)n2nnc(C(=O)OC)c2C(=O)OC)cc1 (configuration not stated) | inactive: 19.3%
COc1ccc(C2NC(=O)c3c(sc4c3CCN(C)C4)N2)cc1O (configuration not stated) | inactive: -0.788%
CCCNc1nc(NCc2ccccc2OC)c2cnn(C)c2n1 | inactive: -29.3%
CCN(CCCNC(=O)c1cc2c(=O)[nH]c3ccc(C)cc3c2s1)c1ccc(C)cc1 | inactive: -13.4%
Cc1ccc(Cl)cc1N1CCN(S(=O)(=O)c2ccc3[nH]c4c(c3c2)CCCC4)CC1 | inactive: -22.6%
CCOc1ccc2ccccc2c1C(=O)N[C@@H]1C(=O)N2[C@@H]1SC(C)(C)[C@@H]2C(=O)O | inactive: 1.77%
Cc1cccc(N2CCN(C(=O)C3CCN(S(=O)(=O)c4cn(C)cn4)CC3)CC2)c1C | inactive: -18.7%
COc1ccccc1NC(=O)CN1C(=O)c2cccc3cccc1c23 | inactive: -0.0591% [at 11.5 µM, percent change from vehicle, -100% = no light]
